{
  "source": "PubChem BioAssay AID1508624",
  "about": "(National Center for Advancing Translational Sciences (NCATS), 2021)",
  "note": "The campaign covered roughly 48,000 compounds. About 120 (0.25%) were called active. Inconclusive results (about 4%) are left out. Calls follow the shape of the dose curve; as a rule, active = well fitted activation curve with a large enough effect; inconclusive = small, poorly fitted or top-dose-only effect, or another doubt; inactive = no such curve, though single readings can be large or run the other way. Some of the results follow.",
  "data": [
    {"experiment": "Primary qHTS for Identification of Small Molecule Activators of Huntingtin-Antisense Promoter Activity; also: nearly all actives have a fitted effect of over 55% in size", "settings": "HEK293 HTT-AS promoter firefly luciferase reporter, 24 h; series mostly up to 57.5 µM; activity change, positive = activation: at the top concentration", "outline": "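Quantitative HTS used concentration series of up to 57.5 uM final on HEK293 luciferase reporter cells, 24 h at 37 degrees C. Readout was Dual-Glo firefly luminescence.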", "values": [
      {"compound": "COC(=O)c1ccc(NC(=O)Cc2coc3cc(C)ccc23)cc1", "activity change, positive = activation": "inactive: -17.1%"},
      {"compound": "COc1ccc(-c2nc3nc(C)cc(Nc4ccc(C(C)=O)cc4)n3n2)cc1", "activity change, positive = activation": "inactive: -9.56%"},
      {"compound": "CCOc1ccc(-c2ccc(NS(=O)(=O)c3cc(C)c(C)cc3C)cc2)nn1", "activity change, positive = activation": "inactive: -27.1%"},
      {"compound": "CNC1[C@H](O)C(O[C@@H]2C(O)C(O[C@H]3O[C@H]([C@@H](C)NC)CC[C@H]3N)[C@@H](N)C[C@H]2N)OC[C@]1(C)O", "note": "(stereo not given in full)", "activity change, positive = activation": "inactive: -15.1%"},
      {"compound": "CCN(C(=O)COc1cc(=O)n(C)c2ccccc12)c1cccc(C(F)(F)F)c1", "activity change, positive = activation": "inactive: -16.1%"},
      {"compound": "CCOc1ccc(CCNC(=O)c2ccc(CS(=O)(=O)Cc3ccccc3Cl)o2)cc1OCC", "activity change, positive = activation": "inactive: -38.8%"},
      {"compound": "Cc1ccc2c(c1)c1c3n2CCNC3CCC1", "note": "(stereo not given)", "activity change, positive = activation": "inactive: -2.89%"},
      {"compound": "CCOc1ccc(C(=O)Nc2ccc(-c3nc4cc(CC)ccc4o3)cc2)cc1", "activity change, positive = activation": "inactive: 1.84%"},
      {"compound": "O=C(c1cc2c(=O)[nH]c3ccccc3c2s1)N1CCN(c2ccc(F)cc2)CC1", "activity change, positive = activation": "inactive: -13.1%"},
      {"compound": "CC(NC(=O)CCn1c(=O)c2cccn2c2ccc(F)cc21)c1ccccc1", "note": "(stereo not given)", "activity change, positive = activation": "inactive: -3.28%"},
      {"compound": "COc1cccc(N2CC(NC(=O)Cc3cccs3)CC2=O)c1", "note": "(stereo not given)", "activity change, positive = activation": "inactive: -6.99%"},
      {"compound": "Cc1ccc2c(c1)c1c(c(=O)n(-c3ccccc3)c(=O)n1CC(=O)N1CCCC1)n2C", "activity change, positive = activation": "inactive: -3.9%"},
      {"compound": "CCn1cc(C(=O)NCCc2ccc(C)cc2)c(=O)c2cc(S(=O)(=O)N(C)C)ccc21", "activity change, positive = activation": "inactive: -7.21% [at 11.5 µM, percent change from vehicle, -100% = no light]"},
      {"compound": "CN1C(=O)CC(=O)N(C)c2cc(S(=O)(=O)N(C)Cc3ccccc3)ccc21", "activity change, positive = activation": "inactive: 5.88%"},
      {"compound": "Cc1ccccc1C(=O)Nc1ccccc1C(=O)OCc1cc(=O)n2ccsc2n1", "activity change, positive = activation": "inactive: -20.9%"},
      {"compound": "CCCCN(CCCC)CCNC(=O)c1cn(C)c2ccc(S(=O)(=O)N3CCOCC3)cc2c1=O", "activity change, positive = activation": "inactive: 4.65% [at 11.5 µM, percent change from vehicle, -100% = no light]"},
      {"compound": "Cc1c(Cl)cccc1NS(=O)(=O)c1ccc2[nH]cc(C(=O)NC3CCCC3)c(=O)c2c1", "activity change, positive = activation": "inactive: -46.7%"},
      {"compound": "Cc1ccc(S(=O)(=O)c2nc(-c3cccs3)oc2N2CCCCC2)cc1", "activity change, positive = activation": "inactive: -18.9%"},
      {"compound": "COc1ccc2c(c1)c1c(c(=O)n(-c3ccc(OC)c(OC)c3)c(=O)n1Cc1ccccc1C)n2C", "activity change, positive = activation": "inactive: -2.31%"},
      {"compound": "CC(=O)c1cccc(NS(=O)(=O)c2ccc3[nH]c4c(c3c2)CCCCCC4)c1", "activity change, positive = activation": "inactive: -30.6%"},
      {"compound": "Cc1ccc(-n2ncc(C(=O)NCCN3CCN(C)CC3)c2C2CCN(C(=O)OC(C)(C)C)CC2)c(C)c1", "activity change, positive = activation": "inactive: 2.6%"},
      {"compound": "O=S(=O)(c1ccc(Br)cc1)c1nc(-c2ccco2)oc1SCc1ccccc1Cl", "activity change, positive = activation": "inactive: -9.8%"},
      {"compound": "Cc1ccc(CCNC(=O)c2nn(C)c3c2CSc2ccccc2-3)cc1", "activity change, positive = activation": "inactive: -26.7%"},
      {"compound": "CCCCOc1ccc(CNC(=O)CN2CCSc3ccccc32)cc1", "activity change, positive = activation": "inactive: -27%"},
      {"compound": "COc1cccc(CNC(=O)CCn2c(=O)c3cccn3c3ccc(F)cc32)c1OC", "activity change, positive = activation": "inactive: -18.3%"},
      {"compound": "COc1ccc(-n2nc(C(=O)N(C)c3cccc(C(F)(F)F)c3)c3c4ccccc4n(C)c3c2=O)cc1", "activity change, positive = activation": "inactive: -0.434%"},
      {"compound": "NC(=O)c1cccc(-c2cc(Nc3ccc(OC(F)(F)F)cc3)ncn2)c1", "activity change, positive = activation": "inactive: -12%"},
      {"compound": "CCCNC(=O)C1CCC(Cn2c(=O)c3sccc3n(Cc3cccc(OC)c3)c2=O)CC1", "note": "(stereo not given)", "activity change, positive = activation": "inactive: -11.6%"},
      {"compound": "CCC(C(=O)N1CCN(c2cccc(C)c2C)CC1)n1nc(C)c2sc3ccccc3c2c1=O", "note": "(stereo not given)", "activity change, positive = activation": "inactive: -4.29%"},
      {"compound": "Cc1nc2nc(NC(=O)c3cccc(Cl)c3)[nH]n2c(=O)c1Cc1ccccc1", "activity change, positive = activation": "inactive: 21.1%"},
      {"compound": "CCOC(=O)C1CCC(CN(Cc2ccccc2)S(=O)(=O)c2ccc(Cl)cc2)CC1", "note": "(stereo not given)", "activity change, positive = activation": "inactive: -20.4%"},
      {"compound": "CCOc1ccc(-n2c(-c3ccc(C)cc3)nc3c(cnn3-c3ccccc3)c2=O)cc1", "activity change, positive = activation": "inactive: -5.97%"},
      {"compound": "Cc1ccc(NC(=O)CCn2c(=O)c3cccn3c3ccccc32)c(Cl)c1", "activity change, positive = activation": "inactive: -28.3%"},
      {"compound": "COc1ccc(CCNC(=O)CCc2c(C)nc3c(c(C)nn3-c3ccc(C)c(C)c3)c2C)c(OC)c1OC", "activity change, positive = activation": "inactive: -12.3%"},
      {"compound": "CCOC(=O)c1c(S(=O)(=O)N2CCC(C(=O)Nc3ccccc3OC)CC2)c(C)n(CC)c1C", "activity change, positive = activation": "inactive: 15.6%"},
      {"compound": "COc1ccc(CCNC(=O)Cn2cc(C(=O)c3ccccc3)c(=O)c3ccc(C)nc32)cc1OC", "activity change, positive = activation": "inactive: -10.3%"},
      {"compound": "NS(=O)(=O)c1ccc(CCNC(=O)CCCCCn2c(=O)[nH]c3ccccc3c2=O)cc1", "activity change, positive = activation": "inactive: 2%"},
      {"compound": "COc1ccc(NC(=O)c2cn(CC(C)C)c(=O)c3cc(OC)c(OC)cc23)cc1Cl", "activity change, positive = activation": "inactive: -34.5%"},
      {"compound": "Cc1ccc(NC(=O)c2nn(C)c3c2CS(=O)(=O)c2ccccc2-3)c(Cl)c1", "activity change, positive = activation": "inactive: 39.5%"},
      {"compound": "Cc1nc(N2CCOCC2)c2c(C(=O)NCc3cccc(Cl)c3)c(C)oc2n1", "activity change, positive = activation": "inactive: 1.37%"},
      {"compound": "Oc1c(C(c2ccccc2)N2CCC3(CC2)OCCO3)sc2nc(-c3ccco3)nn12", "note": "(stereo not given)", "activity change, positive = activation": "inactive: -10.6%"},
      {"compound": "O=C(CCCCCn1c(=O)c2sccc2n(CC(=O)Nc2cccc(Cl)c2)c1=O)NCc1ccc2c(c1)OCO2", "activity change, positive = activation": "inactive: -32.4%"},
      {"compound": "CCOC(=O)Cc1ccc(NC(=O)Nc2cccc(OCc3cc(=O)n4cc(C)ccc4n3)c2)cc1", "activity change, positive = activation": "inactive: 4.25%"},
      {"compound": "COc1ccc(-c2nc3c(c(SCC(=O)Nc4ccc(C(=O)O)cc4)n2)Cc2ccccc2O3)cc1", "activity change, positive = activation": "inactive: -18.1%"},
      {"compound": "CCc1cccc(NC(=O)CSc2ncc3c(n2)-c2ccc(Cl)cc2N(Cc2ccccc2)S3(=O)=O)c1", "activity change, positive = activation": "inactive: -1.27%"},
      {"compound": "CCc1c(C)sc2c1CCN(C(=O)Nc1cc(OC)c(OC)c(OC)c1)C2c1ccccc1", "note": "(stereo not given)", "activity change, positive = activation": "inactive: -51.5%"},
      {"compound": "COc1cccc(C(=O)NC2(C(F)(F)F)C(=O)Nc3c2c(=O)[nH]c(=O)n3-c2ccc(C)cc2)c1", "note": "(stereo not given)", "activity change, positive = activation": "inactive: -14.6%"},
      {"compound": "CN(Cc1ccccc1)C(=O)CN1C(=O)CSc2ccc(S(=O)(=O)N3CCOCC3)cc21", "activity change, positive = activation": "inactive: -6.49%"},
      {"compound": "COc1ccc(OC)c(S(=O)(=O)Nc2cc3c(cc2C)n(C)c(=O)c(=O)n3C)c1", "activity change, positive = activation": "inactive: -7.89%"},
      {"compound": "COc1ccc(NC(=O)CCS(=O)(=O)c2nc(-c3cccs3)cc(C(F)(F)F)n2)cc1OC", "activity change, positive = activation": "inactive: -93.8%"},
      {"compound": "O=C(c1noc2c1CCCCC2)N1CCN(c2ccc(Cl)cc2)CC1", "activity change, positive = activation": "inactive: -23.8%"},
      {"compound": "CCc1ccc(-c2cn3c(n2)sc2cc(C(=O)NCCc4ccc(OC)cc4OC)ccc23)cc1", "activity change, positive = activation": "inactive: -25.2%"},
      {"compound": "COc1ccccc1NC(=O)Cn1c(=O)n(Cc2ccc3c(c2)OCO3)c(=O)c2oc3ccccc3c21", "activity change, positive = activation": "inactive: -6.57%"},
      {"compound": "C#CC(C)(C)NS(=O)(=O)c1cc(-c2nnc(Nc3ccc(C)cc3)c3ccccc23)ccc1C", "activity change, positive = activation": "inactive: -17.4%"},
      {"compound": "Cc1ccc(NC(=O)NCc2ccc3c(c2)CCN3C(=O)c2ccccc2)c(Cl)c1", "activity change, positive = activation": "inactive: -25.8%"}
    ]}
  ]
}
